# Test results: the RNAGym collection of RNA variant scans (doi:10.7554/elife.90254)
# The source gives no read counts; variants with many changes may rest on few reads.
# B1: LINE1-mini (parent)
# chain: GGCAGAGCUCAACACAGCGUGGCAAAGUGGCUGUGGCUAGACUGCC
# Variants of: B1
# Experiment: self-cleavage, relative activity (ratio to wild type); higher = more cleavage; in vitro, sequencing; the parent is a self-cleaving ribozyme
row,Variant,self-cleavage
1,A6C A12U C18U A24C U28A U32G U43C,0.01
2,G5U G7U C8U G17U C31G,0.2
3,A6C C8G G19A U28A G30A,0.04
4,G5U U9C G17A,0.01
5,A6C C8G U9C G22C,0.01
6,A6C A26G G29C U34C G40A,0.01
7,A6C A16U A41C,0.09
8,A6C A24U U38A,0.4
9,G5U G17U G27U G30C,0.02
10,G5U G36C A41G,0.07
11,G5U U20G A25U G36U,0.01
12,G5U G27U U43G G44C,0
13,G5U G17C G29U G30U G44A,0.01
14,G5U U9A G17U,0.08
15,A6C A12U C13G,0.13
16,G5U G33A U34G,0.03
17,A6C A11C G30C C31A,0.02
18,G5U G19A G30A A41G C45A,0.08
19,A6C A26C U28A C46A,0.11
20,A6C C8G C13U C42G,0
21,A6C A14U A24U,0.14
22,G5U G40A C42U,0.02
23,G5U G19C C45G,0.03
24,A6C A16U G33A,0.02

row,Variant,self-cleavage
1,G5U G29U G35A,0.1
2,G5U G22U A24C,0
3,G5U G17A G30A G33U U38G G44U C45G,0.01
4,G5U U32G G40A,0.02
5,A6C C8A U9A U43C,0.05
6,G5U U28A G44U C45A,0.25
7,A6C C8A C10G A14U C15A C31U,0.01
8,G5U G7U C18A A26G U32C A39U C46G,0.01
9,A6C C8A G19A G22U A26U C45G,0.48
10,G5U G7A A16C,0.45
11,A6C C10A C13G C18G,0.02
12,G5U U9A G29C,0.06
13,A6C A16C C18U,0.03
14,G5U G21C U43G,0.05
15,G5U G21U U34C G40C C45U,0
16,A6C A24U C37A C42U,0.24
17,A6C C8G U9A C10G,0.05
18,G5U U9G A11U C18A G29U,0.02
19,A6C A12C C15G C18G,0.02
20,A6C A16U A25U A26G C37G,0.01
21,G5U U9G G33C,0.03
22,G5U G7U A14C G30U,0.21
23,A6C A16G G17U G44U,0.08
24,A6C A16G A25G G35U,0

row,Variant,self-cleavage
1,G5U G27U G33U G44A,0.07
2,G5U G30U U32A A41G,0.01
3,A6C A12G U38G,0.14
4,A6C C8U C10U A26U G27U G29A U32G U38G U43A,0.02
5,G5U U20A G21U G35U,0.06
6,G5U G19U G30U C42A,0.1
7,A6C A25C C31A,0.05
8,A6C C8G A14G C46A,0.02
9,G5U G21C G27A C42A G44U,0.07
10,A6C A39G G44C C45A,0.06
11,A6C A12G A25U U38A,0.03
12,A6C A11G C23U C45U C46U,0.02
13,G5U G30U C42A,0.05
14,G5U G7A G30A,0.2
15,G5U U34G A41U,0.02
16,G5U U9A G27U G36C,0.02
17,A6C A25G G30A C45A,0.04
18,G5U G7C A14U A26U G30U G33A,0.07
19,A6C A26U A39U C42G,0.09
20,A6C C8A G44U C45A,0.62
21,A6C C8G A14G U28G,0.02
22,G5U U9G U43A G44C,0.03
23,G5U G21U G22U G36C,0.07
24,G5U U9G G35U,0.07

row,Variant,self-cleavage
1,G5U G21U C23A G44A C45A,0.02
2,G5U G22U U28A,0.04
3,G5U G7U G27A G36A,0.81
4,G5U U9A G21C,0.02
5,G5U G17A G29C G35C,0.01
6,G5U G36A C45U,0.08
7,G5U G30C A41U,0.03
8,G5U G17A G27U U38G,0.01
9,G5U G19A G33U C42A,0.02
10,G5U U20C G22C,0.04
11,G5U G21U U34G G36U,0.08
12,A6C A14U A16C G29C,0.12
13,G5U U9A C13G,0.11
14,G5U G17C G29U,0.09
15,G5U U28C G36U,0.07
16,A6C A26G G40C,0.14
17,G5U G22U G29U G44A,0.06
18,A6C A16G C45G,0.03
19,A6C A16U G21A G33C C42U,0.14
20,A6C C10A A16G G30A U34A,0.03
21,A6C C8U C23U,0.11
22,G5U G7U C46U,0.2
23,G5U G7U C8A A14U C31A,0.05
24,G5U U34C G35U C42G,0

row,Variant,self-cleavage
1,G5U G21A G30U U34C U38A G40U C46A,0.04
2,G5U U34G C42A C45U,0
3,A6C A16G G36A,1.09
4,A6C C8G A16G G35C,0
5,G5U G7C U9G A39C A41C,0.03
6,G5U G35U G40U,0
7,G5U U34A U38A C42A,0.05
8,A6C A24C G29U,1.74
9,G5U U9A C10U A16C A26C C31U,0.02
10,G5U G7A C18U C46A,0.16
11,A6C C8U A26G,0.48
12,A6C A12G C13A G44U,0
13,G5U G30U U32C,0.02
14,G5U G7U U34G,0.13
15,G5U U34G A39G C42G G44U,0.02
16,G5U U38C G40U,0.07
17,G5U G29A U32A G33U C42G,0.01
18,A6C A12C G40A,0.03
19,G5U G7U A11G A25C,0.01
20,G5U U9A U34A,0.21
21,A6C A14G G36U,0.22
22,G5U G22C G36U,0.11
23,G5U G17A C42A,0.03
24,G5U U20C A39U,0.03

row,Variant,self-cleavage
1,A6C A14U C15G G22U C23U G30A,0.03
2,A6C C8G U9A A11G G21U,0.01
3,A6C A16G C31U,0.06
4,G5U U32C U34C,0.07
5,A6C A14U C18G G33C C42A,0.02
6,G5U U20A G44A,0.07
7,G5U U9C A12G,0.02
8,G5U U9A G17C G29U G30C U34C,0.07
9,G5U U9C C37U,0.03
10,A6C A16U G29A G33U,0.04
11,A6C C8U C13G,0.09
12,G5U G22A G35U,0.07
13,G5U G40C C42A C45G,0.01
14,A6C A12C C15U G17A,0.05
15,G5U G36C G40U,0.05
16,G5U G7U A11C C15U A16C C42U,0.02
17,A6C A12C G17C,0.02
18,A6C C8U G19C G33C G35U A39C,0.18
19,G5U U9C C13U C15U,0.02
20,G5U U9G A26U U32A,0.19
21,A6C C10A G17A G19U,0.02
22,G5U G7A A16U G17C G40A,0.12
23,G5U G30C G40C C46U,0.05
24,G5U G36C C45G,0.06

row,Variant,self-cleavage
1,G5U G29A G33U U34G,0.04
2,G5U U9C G29U C42G,0
3,G5U G27U G36A C42A U43A,0.16
4,G5U G17A C18U A26G,0.05
5,G5U G7U C15U C46U,0.1
6,G5U U20C G21C,0.04
7,G5U U20G G29C G40A,0
8,A6C A14C G22U,0.54
9,G5U U9C A24G,0.02
10,A6C C8A C10G G29A G30A,0.02
11,G5U G7A A25U C31U,0.25
12,A6C A12U A14G C15U U38A A41G G44C,0.01
13,A6C A11U C13A G35U,0.1
14,G5U G21U G33A,0.05
15,A6C A12U G22A G44U,0.03
16,A6C A12G U38C C45A,0.08
17,G5U G17C G27U C42U C45U,0.06
18,A6C C8A G17A C23A G27A G30A U32G C45A,0.03
19,G5U U20A U32G C46U,0.03
20,G5U U20C C31U U32G,0.02
21,G5U U28C U43A,0.09
22,G5U G21U G44U,0.09
23,G5U U20C U43A,0.02
